Measured values published in the RNAGym collection of RNA variant scans (doi:10.1093/nar/gkz1192).
Read counts are not given, so values of variants with three or more changes are uncertain.

B1: CPEB3 Ribozyme (parent)
chain: UAACAGGGGGCCACAGCAGAAGCGUUCACGUCGCAGCCCCUGUCAGAUUCUGGUGAAUCUGCGAAUUCUGCUGUAUAUCUC

Variants of: B1
Assay: self-cleavage, relative activity (ratio to wild type); higher = more cleavage; in vitro, sequencing
Method in brief: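 After error-prone PCR and barcoding, CPEB3 ribozyme mutant libraries were transcribed with T7 RNA polymerase at 37°C for 5 hours, then given 15 min with DNase I before an EDTA stop, and they cleaved during both steps. Reverse transcription with template switching preceded Illumina sequencing. Relative activity divides a variant's cleaved/total read fraction by the unmutated ribozyme's. At least 5 reads were required per variant, and three batches were averaged.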

Variant | self-cleavage
U25C C32U U60C | 0.15
U25C A35U G63C U66C | 0.09
C23U A47G A56C U67A U69A U78A U80A | 0.09
C23G U26A A47G U72A | 0.14
G24C U41A U58C U80C | 0.11
G24A A35G U51A | 0.47
G24A U25C U41A U60A A64G U74G | 0.12
U25C A47G U72C U76C | 0.21
U25C A57G A64G U78A U80C | 0.2
U25A G33A U60C U72C U74C | 0.07
C23U A45C U58A | 0.17
U25C G46A A64G | 0.16
U25A G36C U74A | 0.07
G24A A35U G55U A57G A64G C71U | 0.04
U25A U26A U43C U67A U80C | 0.1
G24U G33A A77U | 0.06
C23U U26A U49C U72C | 0.13
U25A A28C C40A U43A U66C U69C | 0.06
G24A A28U G61A | 0.13
U25C A45G A47G | 0.1
U25A U41C U43A A47G U48A U66A | 0.17
U25C A45G A56G A57G U60A U66C G70A | 0.19
U25C C27A U49C | 0.14
U25C A35G U41C A65G U72C U76C U80C | 0.14

Variant | self-cleavage
U25A U26A U80C | 0.25
C23U C44U A57G | 0.07
U25A A45G G46C C68U | 0.34
U25C A57G A75G | 0.05
C23G C34G G42A A57G U72C | 0.04
U25C A35G U41C U69G | 0.25
U25C C38G U60C U69C | 0.03
U25A C40U U60C A65G U69A U80C | 0.07
U25C A35U A45G | 0.08
C23U C50G U69A | 0.06
C23U U41C U58A U76C | 0.09
G24A U51C U60C U74A | 0.09
U25C C40A U51C | 0.15
U25A C62U U74C | 0.08
U25A A35G G42C A45U A47C | 0.15
U25C C40G A47G U51A U60C U74C | 0.17
G24A G42A A56G | 0.29
C23G U25A A75G | 0.18
G24A U25C U43A U69C | 0.07
U25C C39A A47G | 0.27
G24A U43C A56G A75G | 0.09
U25C G33A U67C U80C | 0.15
U25C U26C A28G | 0.35
U25C A45U U51C A56G | 0.13

Variant | self-cleavage
C23G C59G U69A U72C | 0.07
U25A U26C C38G U69A U74A | 0.16
U25C C38G U43C U51G U76C | 0.05
C23U U26A A56G U78C | 0.06
U25C C32U U54G U66C | 0.18
C23U U51C U69C | 0.42
U25C C32A A75U | 0.2
G24A A28G A65G U74A | 0.14
C23U A35U U41C U67A | 0.09
U25C G42A U58C | 0.09
U25C C38U U43C A45G A47G | 0.18
U25C A35G U51G A64G U76A | 0.14
C23U U26C U31C U49C U78A | 0.37
C23U G42U G52A U76A | 0.5
G24A U26C A35G U66C | 0.22
U25C A56U U74C U76C | 0.25
G24A U54C U72A | 0.06
G24A U41C A47G | 0.42
G24A A35G U41C A57U A64G U72C | 0.05
U25C A45G U51C U54C U72A | 0.05
U25C C38U U69C | 0.1
C23U U41C U78C | 0.16
U25C C32A U54C A75U | 0.2
G24A A45U U58A A77G | 0.09

Variant | self-cleavage
U25C A57G U66C | 0.15
C23A U54C A57G U60C U66C U67G U78C | 0.04
U25A U43A U49C U60A U72G | 0.14
U25A U31C U60A | 0.09
G24A G36U G70C A75G | 0.08
C23A U69C U72C | 0.56
G24C G53U U54A | 0.29
C23G U26A G52A | 0.09
C23U A35G U76C | 0.97
U25C A64U U69C C79A | 0.08
U25A A28G A64G | 0.45
U25A A45G U66C U76A A77U | 0.06
U25C G36A A56G | 0.2
U25C U26A A35G U43A | 0.09
U25C A45G U49C U80C | 0.11
G24A A35U U54A | 0.1
C23G A35G A57U U72C C79A | 0.27
C23U U51A A77G | 0.08
C23U U51A A77U | 0.15
G24A A45U U76C U78C | 0.11
C23U U54C U66C | 0.34
U25C A57U G63U U67C U80C | 0.04
U25C A65C U80C | 0.14
U25C C29G U31C G52A U80C | 0.14

Variant | self-cleavage
U25C A47U U49C U51C A57G | 0.16
U25A U31C U49C A56G A65U | 0.06
C23U A28G U31C U43A U49C | 0.29
U25C G30C U80A | 0.16
G24C U49A U66C U72A | 0.15
U25C C32A U51C | 0.18
G24A U26A A28G | 0.18
G24A U49C U80A | 0.05
U25A U41A A56G U78A | 0.08
G24U U54A U72A A77G | 0.16
C23U U26C A45U U49G U69A | 0.07
U25C A64G U67C U72C A75C | 0.08
U25C A47G G61U G70A U74A | 0.1
U25C A47G U58A | 0.06
U25C C32U C38A A64U | 0.11
U25C A47U U69C | 0.46
U25C A28G C39U U41A U76C | 0.16
C23U U49G U67C | 0.12
U25A C40A U51C A56G | 0.15
U25C A28G C32U U67C A75G | 0.14
C23U U41G A65G | 0.06
G24A A28U U72C | 0.07
U25A A35C U49C U78A | 0.05
G24U U41A U49A U66C | 0.22

Variant | self-cleavage
U25C C29G A35G U48C U72A | 0.07
U25C C39A C50U U51G U60C | 0.11
U25C A57G A64U | 0.24
U25C A28G A35G | 0.16
U25A C27G U41C U78C | 0.09
U25C A35U A47G | 0.16
U25A C44A U78C | 0.18
U25A G30A A57G | 0.48
U25C C29A A57G U66C | 0.25
C23G C39A U80C | 0.08
U25C C32A U51C U74A | 0.31
U25A A45G U72A | 0.2
G24C U69C A75G U78A | 0.09
U25C A64U U69G | 0.16
U25C A28G C37A | 0.25
U25C A35C C40U U48C U51C G52U U80C | 0.06
U25C A35G U48C U60C U78C U80A | 0.17
G24A A45G U54C A64U U72G | 0.07
U25A U26C A28G U43A U58C U60A | 0.17
C23U U49A U67A U69C | 0.06
U25C A28G U43A | 0.11
G24C U58A G63A A64G U76C U80A | 0.1
C23U U26A A47G A57G A64G U72C U80C | 0.04
U25A A35U U54C U78C | 0.09

Variant | self-cleavage
U25C U26C A35U U43C U54C | 0.35
U25A C32A U43A U51A U69C | 0.22
G24U U43G U69C U74C | 0.07
U25C C39U A45C | 0.25
U25C A56G A65G | 0.31
U25C A28G C38U U41C | 0.64
G24A U74G C79A | 0.3
G24U U26A U43A A56G U58G U69C | 0.2
U25A U51A U54A | 0.33
U25C A45G U49C A75G | 0.17
G24C U58A U80C | 0.45
U25C A45U U51G U54C | 0.03
U25C U26A A45C U48C U60A U72A | 0.15
U25C A35G A45C U48C U78C | 0.03
U25C G30A A64G C81A | 0.1
U25A A45G U78C | 0.07
U25C C40U U43C U78C | 0.08
U25C U26A A77U | 0.22
U25C C29G U31C U41A A45U A57G U74A | 0.03
G24A U31A U67C | 0.06
U25A U48C A56G U58A | 0.15
U25A A47G U48C U78A | 0.05
U25C C34U U51C | 0.11
